Assay results from PubChem BioAssay AID463173 (ICCB-Longwood Screening Facility, Harvard Medical School, 2010).
Among all 52,000 compounds or so, about 1,700 (3.3%) were called active. Rule as the data show it: active = survival mostly below about 52% (no sharp cut-off); inactive = mostly above about 56%. The list shows a part of the results.

system: Wild type; assay: growth inhibition of S. aureus wild type versus tarO mutant, primary screen, teichoic acid synthesis inhibitors, RN4220, OD600 (AID 463173); conditions: S. aureus RN4220 wild type/DeltatarO growth, OD600, 18 h, hits give low values, screened at 18.75 µg/mL (by protocol)

| SMILES | survival |
| --- | --- |
| Cc1cc(SCC(=O)NCc2ccc(F)cc2)nc(=O)[nH]1 | inactive: 68% |
| Cn1ncc(C(=O)N2CCN(c3ccccc3F)CC2)c1C1CCN(C(=O)OC(C)(C)C)CC1 | inactive: 74% |
| CCCCN(CC)CCCNC(=O)c1cn(CC)c2ccc(S(=O)(=O)N3CCOCC3)cc2c1=O | inactive: 81% |
| CCOc1ccccc1-n1nnc(S(=O)(=O)c2ccc(C)cc2)c1N | inactive: 85% |
| Cc1ccc(NC(=O)c2nc(-c3ccncc3)no2)c(Cl)c1 | inactive: 118% |
| COc1ccc(C2N3CC4(C)CN2CC(c2ccccc2)(C3)C4=O)cc1 (stereo unspecified) | inactive: 88% |
| O=C(COCc1cc(-c2ccco2)on1)Nc1cccc(Cl)c1Cl | active: 0% |
| Cc1ccc(NC(=O)CSc2nc(-c3ccco3)cc(C(F)(F)F)n2)cc1C | inactive: 50% |
| CCOc1ccc(NC(=O)CN2CCN(c3ccc(Cl)cc3)CC2)cc1 | inactive: 77% |
| CC1(C)C/C(=N\O)c2cc3c(nc2C1)CCCC3 | inactive: 103% |
| COc1ccc(OC)c(CCNC(=O)c2cc3c(=O)n(C)c4ccccc4c3n2C)c1 | inactive: 60% |
| COC(=O)c1ccc([C@@H]2Nc3c(C)cc(C)cc3[C@@H]3C=CC[C@@H]32)cc1 | inactive: 87% |
| O=C(c1cc(F)cc(F)c1)N1CCC(c2nc(-c3ccc(S(=O)(=O)N4CCCC4)cc3)no2)CC1 | inactive: 87% |
| CCOC(=O)c1cccc(NC(=O)C2CCCN(S(=O)(=O)c3cc(Br)cc4c3N(C(=O)CC)CC4)C2)c1 (stereo unspecified) | inactive: 98% |
| COc1ccc(CN(C(=O)Cc2coc3ccc(C)cc23)C2CCS(=O)(=O)C2)cc1 (stereo unspecified) | inactive: 78% |
| CCc1cccc(NC(=O)CCN2C(=O)c3ccccc3Sc3ncccc32)c1 | inactive: 75% |
| Cc1cc(=O)n2nc(N(C)CC(=O)NCc3ccc(Cl)cc3)sc2n1 | inactive: 85% |
| O=C(NCC1CCN(Cc2ccc(F)cc2)CC1)c1cc2ccc3cccnc3c2[nH]1 | inactive: 66% |
| CCOc1ccc(NC(=O)Cn2c(=O)oc3cc(S(=O)(=O)N4CCC(C)CC4)ccc32)cc1 | inactive: 124% |
| COc1cc(Cl)c(C)cc1NC(=O)c1cc2c(s1)-c1c(C)cccc1OC2 | inactive: 99% |
| O=C(Cn1c(=O)nc(-c2ccccc2)c2cc(Cl)ccc21)NCCc1ccccc1 | inactive: 69% |
| CCCNC(=O)N1CCC(c2ccc3c(c2)OCO3)CC1 | inactive: 107% |

| SMILES | survival |
| --- | --- |
| CCC(=O)N1CCc2cc(S(=O)(=O)NC(CC(C)C)C(=O)NCc3ccc(C)cc3)ccc21 (stereo unspecified) | inactive: 108% |
| Cc1ccc(O)c(-c2n[nH]c3c2C(c2ccccc2F)N(Cc2ccco2)C3=O)c1 (stereo unspecified) | active: 11% |
| CCc1nn(CC(=O)N2CCN(c3cccc(C)c3C)CC2)c(=O)c2cc3sccc3n12 | inactive: 128% |
| COc1cccc(CNC(=O)CCS(=O)(=O)c2ccc3c(c2)CC(C)N3C(=O)C2CC2)c1 (stereo unspecified) | active: -3% |
| Cc1cc2[nH]c(=O)c(=O)[nH]c2cc1S(=O)(=O)Nc1cccc(C(F)(F)F)c1 | inactive: 89% |
| Cc1sc2ncn(CC(=O)N3CCN(c4ccc(F)cc4)CC3)c(=O)c2c1S(=O)(=O)N1CCN(c2ncccn2)CC1 | inactive: 84% |
| CCCCN(C)C(=O)Cn1cnc2sc(C)c(S(=O)(=O)N3CCN(c4ccccc4OC)CC3)c2c1=O | inactive: 85% |
| CNC(=O)c1ccc(NC(=O)COc2ccc(-c3nn(C)c(=O)c4ccccc34)cc2)cc1 | inactive: 84% |
| CC(Cc1c[nH]c2ccccc12)NC=O (stereo unspecified) | inactive: 119% |
| Cc1ccccc1NC(=O)Nc1cccs1 | inactive: 87% |
| Cc1ccc(OCC(=O)N(Cc2sccc2C)C2CCS(=O)(=O)C2)cc1 (stereo unspecified) | inactive: 115% |
| Cc1cc(=O)n2nc(N3CCC(C(=O)NCc4ccc(Cl)cc4)CC3)sc2n1 | inactive: 109% |
| Cc1ccc2onc(CC(=O)N3CCN(c4cccc(C)c4C)CC3)c2c1 | inactive: 74% |
| CCOC(=O)c1[nH]c2ccccc2c1NC(=O)c1cc(OCC)c(OCC)c(OCC)c1 | inactive: 113% |
| COc1ccc(-c2noc(CSc3nnc(-c4ccncc4)n3-c3ccc(C)c(C)c3)n2)cc1 | inactive: 74% |
| Clc1ccc(Nc2nc(-c3ccccc3)c3cc(Cl)ccc3n2)cc1 | inactive: 79% |
| CCc1ccc2[nH]c(=O)c(CN(Cc3ccccc3)Cc3nnnn3C3CCCC3)cc2c1 | inactive: 114% |
| CCOc1ccc(NC(=O)Cn2c(CCC(=O)O)ccc2-c2ccc(C)cc2)cc1 | inactive: 89% |
| CC(C)(C)c1cc(N=NC(=O)c2ccco2)cc(C(C)(C)C)c1O | inactive: 108% |
| Cc1ccccc1C(=O)Nc1cccc(C(=O)OCc2cc(=O)n3nc(C4CC4)sc3n2)c1 | inactive: 55% |
| COc1cc(NC(=O)CC(C)S(=O)(=O)c2cc3c4c(c2)CCN4C(=O)CC3)cc(OC)c1 (stereo unspecified) | inactive: 76% |
| CCOc1ccc(C(=O)CSc2nc3c(c(=O)n(C)c(=O)n3C)n2C(C)C)cc1 | inactive: 105% |

| SMILES | survival |
| --- | --- |
| O=C(Cn1nc(-c2ccc3c(c2)OCCO3)ccc1=O)Nc1cccc2cccnc12 | inactive: 102% |
| COc1ccc(Cn2c(CO)cnc2SCC(=O)NCc2ccco2)cc1 | active: -6% |
| Cc1ccc(C)c(CN2C(=O)c3ccccc3Sc3ccc(C(=O)NCc4ccc5c(c4)OCO5)cc32)c1 | inactive: 72% |
| Cc1ccc([N+](=O)[O-])cc1S(=O)(=O)N1CCn2cccc2C1c1ccc(F)c(F)c1 (stereo unspecified) | inactive: 69% |
| COc1cc2nc(SCC(=O)Nc3cccc(C)c3)n3nc(-c4ccccc4)nc3c2cc1OC | inactive: 82% |
| COc1ccc(NC(=O)c2c(NC(=O)c3cccc(C)c3)sc3c2CCCC3)cc1 | inactive: 86% |
| CCCn1c(N2CCN(C(=O)/C=C/C(=O)O)CC2)nc2ccccc21 | inactive: 114% |
| CC(=O)c1cccc(NC(=O)c2ccc3nc(C(C)C)oc3c2)c1 | inactive: 78% |
| COc1ccc(-c2nc(Cn3c(SCc4ccc(F)cc4)nc4cccnc43)c(C)o2)cc1 | inactive: 78% |
| COc1ccc(CNC(=O)C(OC(=O)c2cc3sccc3n2C(C)C)C(C)C)cc1 (stereo unspecified) | inactive: 131% |
| CC(C)(CO)NC(=O)C1CC(c2c(F)cccc2Cl)=NO1 (stereo unspecified) | inactive: 114% |
| CCOC(=O)c1cc(-c2ccc(OC)cc2)nn1Cc1ccccc1 | active: 10% |
| Cc1ccc(CSc2nc3c(c(=O)[nH]2)C(c2cccc(F)c2F)CC(=O)N3)cc1 (stereo unspecified) | inactive: 108% |
| Cc1ccc(C)c(Nc2nnc(-c3ccc(C)c(S(=O)(=O)N4CCCCC4)c3)c3ccccc23)c1 | inactive: 114% |
| COc1ccc(N2CCN(C(=O)c3nn(-c4ccc(C)cc4)c(=O)n(C)c3=O)CC2)cc1 | inactive: 70% |
| CC(C)c1ccc(NC(=O)C(Cc2ccccc2)NS(=O)(=O)c2ccc3c(c2)CCC(=O)N3)cc1 (stereo unspecified) | inactive: 91% |
| COc1cccc(CNC(=O)CN(C)S(=O)(=O)c2ccc3c(c2)c(=O)n(C)c(=O)n3C)c1 | inactive: 80% |
| Cn1nnnc1SCCNCc1ccccc1Cl | inactive: 70% |
| COc1cc2ncc3c(-c4ccccc4)nn(-c4ccc(C)cc4)c3c2cc1OC | inactive: 60% |
| Cc1ccc(OCC(=O)Nc2ccc3nc(SCC(=O)N(C)c4ccccc4)sc3c2)cc1 | inactive: 79% |
| N#C/C(=C\c1ccc(-c2ccc(C(=O)O)cc2)o1)c1nc2ccccc2[nH]1 | inactive: 110% |
| COc1ccc(Cl)cc1NC(=O)Cn1cc(S(=O)(=O)Cc2cccc(Cl)c2)c2ccccc21 | inactive: 92% |

| SMILES | survival |
| --- | --- |
| CCC1Oc2ccc(C)cc2N(CC(=O)Nc2ccc3c(c2)OCCO3)C1=O (stereo unspecified) | inactive: 104% |
| CCc1ccccc1Nc1nn2c(=O)c3ccc(C(=O)NCc4ccccc4Cl)cc3nc2s1 | inactive: 95% |
| Cn1c(=O)oc2cc(S(=O)(=O)N3CCC(C(=O)N4CCN(c5cccc(Cl)c5)CC4)CC3)ccc21 | inactive: 140% |
| CCOc1ccc(CCNC(=O)c2ccc(CS(=O)Cc3ccc(Cl)cc3)o2)cc1 (stereo unspecified) | inactive: 69% |
| CCCCOc1ccc(C(=O)N(Cc2nc(-c3ccc(Cl)cc3)no2)C(C)C)cc1 | inactive: 85% |
| COc1ccc(CC(=O)NCCc2sc(-c3cccc(F)c3)nc2C)cc1 | inactive: 86% |
| Cc1ccc(Cn2c(C)c(CNCc3ccc(OC(C)C)cc3)c(C(=O)O)c2C)cc1 | inactive: 147% |
| CC(=O)N1CCc2cc(Br)cc(S(=O)(=O)CCC(=O)NCCc3ccc(Cl)cc3)c21 | inactive: 67% |
| CN1CCc2c(sc3c2C(=O)NC(c2ccc(OC(=O)c4ccc(Cl)cc4)cc2)N3)C1 (stereo unspecified) | inactive: 75% |
| COc1ccc(C(=O)Nc2ccc3oc(-c4cccc5c(Br)cccc45)nc3c2)cc1 | inactive: 86% |
| CCN1CCc2c(sc(NC(=O)c3ccc(S(=O)(=O)N4CCCC(C)C4)cc3)c2C(=O)OC)C1 (stereo unspecified) | inactive: 71% |
| O=C(CNC(=O)c1ccc(F)cc1)OCc1cc(=O)n2ccsc2n1 | inactive: 58% |
| O=S1(=O)c2ccccc2N(Cc2ccccc2F)c2ccccc21 | inactive: 101% |
| CCCCN(C)C(=O)c1ccc2c(=O)n3nc(Nc4cc(C)ccc4C)sc3nc2c1 | inactive: 140% |
| Cc1c(Cl)cccc1NC(=O)C(=O)NCCc1csc(-c2ccc(C(F)(F)F)cc2)n1 | inactive: 47% |
| Cc1ccccc1Cn1c(CN2CCC(C(=O)NCc3ccc(Cl)cc3)CC2)cc2ccccc21 | inactive: 60% |
| Cc1cc(C(C)(C)C)oc1C(=O)O | inactive: 103% |
| Cc1cc(C)c(OCC(=O)N(Cc2ccc(N(C)C)cc2)Cc2ccco2)c(C)c1 | inactive: 82% |
| O=C(NCc1ccc2c(c1)OCO2)c1ccc2c(c1)N(Cc1c(F)cccc1Cl)C(=O)c1ccccc1S2 | inactive: 84% |
| Cc1cc(C)cc(NC(=O)COc2cccc3c(=O)n(C)ccc23)c1 | inactive: 72% |
